# From PubChem BioAssay AID624296 (National Center for Advancing Translational Sciences (NCATS), 2012)
# Out of some 350,000 compounds screened, about 9,900 (2.8%) were called active. Inconclusive means that the source gave no clear call. Such entries were picked first, then a sample of the others. Calls follow the shape of the dose curve; as a rule, active = well fitted activation curve with a large enough effect; inconclusive = small, poorly fitted or top-dose-only effect; inactive = no such curve, though single readings can be large or run the other way. Potencies of inconclusive entries are left out as doubtful fits.
# Assay: A quantitative high throughput screen for small molecules that induce DNA re-replication in MCF 10a normal breast cells. Also: nearly all actives have a fitted effect of over 50% in size.
# Conditions: MCF 10A DNA re-replication, Hoechst nuclear intensity, 48 h; series mostly up to 46.1 µM
# Potency is read from the fitted curve at half-maximal effect; tags tell the direction and shape of the fitted curve.
row,SMILES,Potency
1,Cc1cc(NC(=O)/C=C/c2cccc(Cl)c2)n(-c2nc3ccccc3[nH]2)n1,active: 20.6 µM
2,O=C(COC(=O)CCC(=O)c1ccc(F)cc1)NCc1ccco1,"inconclusive [activator, single point]"
3,COCc1cc(=O)[nH]c(/N=C(\N)Nc2cccc(Cl)c2)n1,inactive
4,COc1ccc(Cl)cc1Nc1nc(NCCO)nc(N2CCCCC2)n1,"inconclusive [activator, single point]"
5,CCOC(=O)C1=C(CCl)NC(=O)NC1c1ccc2c(c1)OCO2 (configuration not stated),"inconclusive [activator, single point]"
6,O=C(NCCN1CCOCC1)c1cc2n(n1)C(C(F)(F)F)CC(c1ccc(F)cc1)N2 (configuration not stated),"inconclusive [activator, partial curve, poor fit]"
7,Cc1ccc([N+](=O)[O-])cc1S(=O)(=O)Nc1ccc(O)c(Sc2ncn[nH]2)c1,inactive
8,COc1cc(/C=N/Nc2nc3ccccc3[nH]2)cc(OC)c1O,"inconclusive [activator, partial curve, poor fit]"
9,CN(C)S(=O)(=O)c1cccc(COC(=O)c2cc([N+](=O)[O-])ccc2N2CCOCC2)c1,"inconclusive [activator, partial curve, poor fit]"
10,O=C(Nc1ccc(-c2nc3ccccc3o2)cc1)c1cc(-n2cnnc2)ccc1Cl,"inconclusive [activator, single point]"
11,O=C(NC(=S)NCCc1ccccc1)C1CCCCC1,"inconclusive [activator, single point]"
12,CN1CCSc2ccc(C(=O)Nc3cc(F)ccc3F)cc21,inactive
13,Cc1ccc(C)c(N2CCN(C(=O)CCc3nc(-c4ccccc4Br)no3)CC2)c1,"inconclusive [activator, partial curve, poor fit]"
14,O=C(CNC(=O)c1ccc(Br)o1)NCc1ccc(Cl)cc1,active: 25.9 µM
15,Cc1cc(C(=O)N2CCc3ccccc32)n(-c2ccccc2)n1,"inconclusive [activator, single point]"
16,Cc1ccc(NS(=O)(=O)c2cc3c4c(cccc4c2)C(=O)NC3=O)cc1,"inconclusive [activator, partial curve, poor fit]"
17,Cc1ccc(N2CCN(S(=O)(=O)N3CCCCC3)CC2)c(C)c1,"inconclusive [activator, single point]"
18,COc1ccc(C(=O)Nc2ccc(Cl)c(S(=O)(=O)Nc3ccccc3OC)c2)cc1,inactive
19,CCc1n[nH]c(=S)n1/N=C/c1cccc2ccccc12,"inconclusive [activator, partial curve, poor fit]"
20,CCc1ccc(/C=C2/SC(N3CCOCC3)=NC2=O)cc1,inactive
21,Nc1c(C(=O)NC23CC4CC(CC(C4)C2)C3)sc2nc3c(c(C(F)(F)F)c12)CCC3,active: 1.64 µM

row,SMILES,Potency
1,Cc1cc(C(=O)CCl)c(C)n1-c1ccon1,"inconclusive [activator, single point]"
2,OCCN1CCN(c2cc(-c3ccccc3)c3ccccc3n2)CC1,"inconclusive [activator, partial curve, poor fit]"
3,CCN(CC)C1=C(Cl)C(=O)C(Cl)C12OCCO2 (configuration not stated),inactive
4,O=C1CCSc2ccc(Cl)cc2N1Cc1ccc(Cl)cc1,"inconclusive [activator, partial curve, poor fit]"
5,COc1ccc(CN(C)C(=O)c2cc(-c3ccccc3)nc3ccc(C)cc23)c(OC)c1OC,"inconclusive [activator, single point]"
6,COc1ccc(CNC(=O)CN(C)S(=O)(=O)c2ccc3c(c2)OCCO3)cc1OC,"inconclusive [activator, single point]"
7,Cc1nc(N/N=C/c2ccccn2)sc1C,"inconclusive [activator, partial curve, poor fit]"
8,NS(=O)(=O)c1ccc(N2CCN(S(=O)(=O)Cc3ccccc3)CC2)nc1,"inconclusive [activator, single point]"
9,CCCCCCCCCCCC(=O)NC(C(=O)OCC)C(O)c1cccc([N+](=O)[O-])c1 (configuration not stated),"inconclusive [activator, partial curve, poor fit]"
10,CC(C)(C)C(=O)c1cnc(Nc2ccccc2Cl)s1,inactive
11,O=C(N[C@@H](Cc1ccccc1)C(=O)N1CCN(S(=O)(=O)c2ccccc2F)CC1)c1ccco1,inactive
12,O=C1OCCC1Sc1nnc(-c2ccc(F)cc2)n1Cc1ccccc1 (configuration not stated),"inconclusive [activator, single point]"
13,CC(C)C[C@H](N)c1nnc(S(=O)(=O)Cc2ccc(F)cc2)o1,"inconclusive [activator, single point]"
14,CC1CCN(c2oc(Cc3cccc4ccccc34)nc2C#N)CC1,"inconclusive [activator, full curve, poor fit]"
15,O=C(COC(=O)/C=C/c1ccc(S(=O)(=O)N2CCCCCC2)cc1)NCc1ccccc1Cl,"inconclusive [activator, partial curve, poor fit]"
16,Cc1ccc(C)c2nc(Cl)c(C3NC(=O)c4ccccc4N3)cc12 (configuration not stated),"inconclusive [activator, single point]"
17,Cc1ccc(CNC(=O)Nc2ccc(C)cc2)cc1,"inconclusive [activator, partial curve, poor fit]"
18,N#Cc1c(-c2ccco2)cc(-c2ccc(F)cc2)nc1N,"inconclusive [activator, single point]"
19,CCC1NC(=S)N(C2CCCCC2)C1=O (configuration not stated),inactive
20,COc1ccc2c(-c3cnc(N4CCOCC4)nc3)c(-c3ccc(S(C)(=O)=O)cc3)sc2c1,"inconclusive [activator, partial curve, poor fit]"
21,COc1cc(/C=C2/C(=O)NN(c3ccc(Cl)c(Cl)c3)C2=O)cc([N+](=O)[O-])c1O,inactive
